Measurements published in the supplement of paper PMC8728848.
The other results are listed elsewhere or left out.

Key:
Experiment in all cases: glycan array binding signal (z-score within array); higher = stronger binding
Details in all cases: glycan notation: IUPAC condensed, linker removed
Gal(a1-2)Gal = biological target: Gal(a1-2)Gal
In short: (§1)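 Negative Z-scores can be read as non-binding. The Z-score is calculated within each array and then averaged across arrays of one protein sequence at different concentrations or buffers and across linkers. Arrays, 3228 in all, were curated from the Consortium for Functional Glycomics database and kept only where the protein sequence was available.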

Gal(a1-3)Gal = biological target: Gal(a1-3)Gal
In short: as §1

Gal(a1-3)Gal(b1-3)GlcNAc = biological target: Gal(a1-3)Gal(b1-3)GlcNAc
In short: as §1

Gal(a1-3)Gal(b1-4)Glc = biological target: Gal(a1-3)Gal(b1-4)Glc
In short: as §1

Gal(a1-3)Gal(b1-4)GlcNAc = biological target: Gal(a1-3)Gal(b1-4)GlcNAc
In short: as §1

[1] = biological target: Gal(a1-3)Gal(b1-4)[Fuc(a1-3)]GlcNAc
In short: as §1

Gal(a1-3)GalNAc = biological target: Gal(a1-3)GalNAc
In short: as §1

[2] = biological target: Gal(a1-3)[Gal(a1-4)]Gal(b1-4)GlcNAc
In short: as §1

Gal(a1-4)Gal(b1-4)Glc = biological target: Gal(a1-4)Gal(b1-4)Glc
In short: as §1

Gal(a1-4)Gal(b1-4)GlcNAc = biological target: Gal(a1-4)Gal(b1-4)GlcNAc
In short: as §1

Gal(a1-4)GlcNAc = biological target: Gal(a1-4)GlcNAc
In short: as §1

Gal(a1-6)Glc = biological target: Gal(a1-6)Glc
In short: as §1

Gal(b1-2)Gal = biological target: Gal(b1-2)Gal
In short: as §1

Gal(b1-3)Gal = biological target: Gal(b1-3)Gal
In short: as §1

Gal(b1-3)GalNAc = biological target: Gal(b1-3)GalNAc
In short: as §1

[3] = biological target: Gal(b1-3)GalNAc(b1-3)Gal(a1-4)Gal(b1-4)Glc
In short: as §1

[4] = biological target: Gal(b1-3)GalNAc(b1-4)Gal(b1-4)Glc
In short: as §1

[5] = biological target: Gal(b1-3)GalNAc(b1-4)[Neu5Ac(a2-3)]Gal(b1-4)Glc
In short: as §1

Gal(b1-3)GlcNAc = biological target: Gal(b1-3)GlcNAc
In short: as §1

[6] = biological target: Gal(b1-3)GlcNAc(b1-3)Gal(b1-4)Glc
In short: as §1

[7] = biological target: Gal(b1-3)GlcNAc(b1-3)Gal(b1-4)GlcNAc
In short: as §1

[8] = biological target: Gal(b1-3)[Fuc(a1-4)]GlcNAc
In short: as §1

[9] = biological target: Gal(b1-3)[Fuc(a1-4)]GlcNAc(b1-3)Gal(b1-4)GlcNAc
In short: as §1

[10] = biological target: Gal(b1-3)[Fuc(a1-4)]GlcNAc(b1-3)Gal(b1-4)[Fuc(a1-3)]GlcNAc
In short: as §1

[11] = biological target: Gal(b1-3)[GlcNAc(b1-6)]GalNAc
In short: as §1

[12] = biological target: Gal(b1-3)[Neu5Ac(a2-6)]GalNAc
In short: as §1

[13] = biological target: Gal(b1-3)[Neu5Ac(a2-6)]GlcNAc(b1-6)Gal(b1-4)Glc
In short: as §1

[14] = biological target: Gal(b1-3)[Neu5Ac(b2-6)]GalNAc
In short: as §1

[15] = biological target: Gal(b1-4)GalNAc(a1-3)[Fuc(a1-2)]Gal(b1-4)GlcNAc
In short: as §1

[16] = biological target: Gal(b1-4)GalNAc(b1-3)[Fuc(a1-2)]Gal(b1-4)GlcNAc
In short: as §1

Gal(b1-4)Glc = biological target: Gal(b1-4)Glc
In short: as §1

Gal(b1-4)Glc6S = biological target: Gal(b1-4)Glc6S
In short: as §1

Gal(b1-4)GlcNAc = biological target: Gal(b1-4)GlcNAc
In short: as §1

[17] = biological target: Gal(b1-4)GlcNAc(b1-2)Man(a1-3)[Gal(b1-4)GlcNAc(b1-2)Man(a1-6)]Man(b1-4)GlcNAc(b1-4)GlcNAc
In short: as §1

[18] = biological target: Gal(b1-4)GlcNAc(b1-3)Gal(b1-4)Glc
In short: as §1

[19] = biological target: Gal(b1-4)GlcNAc(b1-3)Gal(b1-4)GlcNAc
In short: as §1

[20] = biological target: Gal(b1-4)GlcNAc(b1-3)Gal(b1-4)GlcNAc(b1-3)Gal(b1-4)GlcNAc
In short: as §1

[21] = biological target: Gal(b1-4)GlcNAc(b1-3)Gal(b1-4)[Fuc(a1-3)]GlcNAc(b1-3)Gal(b1-4)[Fuc(a1-3)]GlcNAc
In short: as §1

B1: F17fG (Escherichia coli), Q9RH91 (protein)
chain: MTNFYKVFLAVFILVCCNISHAAVSFIGSTENDVGPSQGSYSSTHAMDNLPFVYNTGHNIGYQNANVWRISGGFCVGLDGKVDLPVVGSLDGQSIYGLTEEVGLLIWMGDTNYSRGTAMSGNSWENVFSGWCVGNYVSTQGLSVHVRPVILKRNSSAQYSVQKTSIGSIRMRPYNGSSAGSVQTTVNFSLNPFTLNDTVTSCRLLTPSAVNVSLAAISAGQLPSSGDEVVAGTTSLKLQCDAGVTVWATLTDATTPSNRSDILTLTGASTATGVGLRIYKNTDSTPLKFGPDSPVKGNENQWQLSTGTETSPSVRLYVKYVNTGEGINPGTVNGISTFTFSYQ
Gal(a1-2)Gal
  glycan array binding signal (z-score): -0.332
Gal(a1-3)Gal
  glycan array binding signal (z-score): -0.383
Gal(a1-3)Gal(b1-3)GlcNAc
  glycan array binding signal (z-score): -0.368
Gal(a1-3)Gal(b1-4)Glc
  glycan array binding signal (z-score): -0.308
Gal(a1-3)Gal(b1-4)GlcNAc
  glycan array binding signal (z-score): -0.33
[1]
  glycan array binding signal (z-score): -0.364
Gal(a1-3)GalNAc
  glycan array binding signal (z-score): -0.39
[2]
  glycan array binding signal (z-score): -0.356
Gal(a1-4)Gal(b1-4)Glc
  glycan array binding signal (z-score): -0.234
Gal(a1-4)Gal(b1-4)GlcNAc
  glycan array binding signal (z-score): -0.382
Gal(a1-4)GlcNAc
  glycan array binding signal (z-score): -0.3
Gal(a1-6)Glc
  glycan array binding signal (z-score): -0.282
Gal(b1-2)Gal
  glycan array binding signal (z-score): -0.248
Gal(b1-3)Gal
  glycan array binding signal (z-score): -0.286
Gal(b1-3)GalNAc
  glycan array binding signal (z-score): -0.283
[3]
  glycan array binding signal (z-score): -0.343
[4]
  glycan array binding signal (z-score): -0.378
[5]
  glycan array binding signal (z-score): -0.355
Gal(b1-3)GlcNAc
  glycan array binding signal (z-score): -0.141
[6]
  glycan array binding signal (z-score): -0.272
[7]
  glycan array binding signal (z-score): -0.3
[8]
  glycan array binding signal (z-score): -0.382
[9]
  glycan array binding signal (z-score): -0.213
[10]
  glycan array binding signal (z-score): -0.353
[11]
  glycan array binding signal (z-score): 0.211
[12]
  glycan array binding signal (z-score): -0.273
[13]
  glycan array binding signal (z-score): -0.2
[14]
  glycan array binding signal (z-score): -0.291
[15]
  glycan array binding signal (z-score): -0.363
[16]
  glycan array binding signal (z-score): -0.375
Gal(b1-4)Glc
  glycan array binding signal (z-score): -0.347
Gal(b1-4)Glc6S
  glycan array binding signal (z-score): -0.248
Gal(b1-4)GlcNAc
  glycan array binding signal (z-score): -0.266
[17]
  glycan array binding signal (z-score): -0.371
[18]
  glycan array binding signal (z-score): -0.313
[19]
  glycan array binding signal (z-score): -0.365
[20]
  glycan array binding signal (z-score): -0.371
[21]
  glycan array binding signal (z-score): -0.157
